# Among all 220,000 compounds or so, about 16,000 (7.3%) were called active. The inconclusive results got no clear call from the source; some entries with a clear call stand among them for comparison. Calls follow the shape of the dose curve; as a rule, active = well fitted inhibition curve with a large enough effect (not every such curve was filed as active); inconclusive = small, poorly fitted or top-dose-only effect, or another doubt; inactive = no such curve, though single readings can be large or run the other way. Potencies of inconclusive entries are left out as doubtful fits.
# Target: Aldehyde dehydrogenase 1A1 (Homo sapiens) (UniProt P00352)
# Sequence of UniProt P00352 (P00352 whole entry, looked up): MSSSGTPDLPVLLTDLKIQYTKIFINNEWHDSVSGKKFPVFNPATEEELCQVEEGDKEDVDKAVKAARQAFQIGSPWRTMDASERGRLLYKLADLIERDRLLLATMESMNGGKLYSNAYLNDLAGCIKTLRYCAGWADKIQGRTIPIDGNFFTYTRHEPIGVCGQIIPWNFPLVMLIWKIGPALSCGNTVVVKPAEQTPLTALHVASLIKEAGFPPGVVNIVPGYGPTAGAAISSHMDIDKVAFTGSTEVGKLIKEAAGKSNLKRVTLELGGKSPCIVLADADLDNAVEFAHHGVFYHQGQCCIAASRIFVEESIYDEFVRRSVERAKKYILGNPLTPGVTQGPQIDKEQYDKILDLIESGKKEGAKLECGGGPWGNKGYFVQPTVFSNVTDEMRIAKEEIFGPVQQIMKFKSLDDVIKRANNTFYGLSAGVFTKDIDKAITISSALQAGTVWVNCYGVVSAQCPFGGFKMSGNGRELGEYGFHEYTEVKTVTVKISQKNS
# Assay: qHTS Assay for Inhibitors of Aldehyde Dehydrogenase 1 (ALDH1A1);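 as to activity, negative = inhibition: plate controls were no enzyme wells and a reference inhibitor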
# Details: Purified ALDH1A1, NADH fluorescence, propionaldehyde substrate; series mostly up to 75.3 µM; activity, negative = inhibition: at the top concentration
# Potency is read from the fitted curve at half-maximal effect; tags tell the direction and shape of the fitted curve.
Compound,"activity, negative = inhibition",Potency
O=C(O)c1c(Cl)c(Cl)c(Cl)c(Cl)c1C(=O)N1CCCC1,inactive: 4.17%,
COCCN(C(=S)Nc1c(C)cccc1C)C(C)c1cccnc1 (stereo not drawn),inactive: 10.8%,
CCCCSc1nc(N)c(C#N)c(-c2cccs2)c1C#N,,"inconclusive [inhibitor, partial curve]"
CCC(C)[C@H](N)c1nnc(SCc2cccc(F)c2)o1 (stereo partly drawn),,"inconclusive [inhibitor, single point]"
O=C(O)CSC1CC(=O)N(c2ccc(Cl)c(Cl)c2)C1=O (stereo not drawn),,active: 3.16 µM
Cc1cccc(NC(=O)CSc2nnnn2-c2ccc3c(c2)OCCO3)n1,,"inconclusive [inhibitor, single point]"
COC(=O)CCC(=O)NC(=S)Nc1ccc(S(=O)(=O)N2CCCC2)cc1,,"inconclusive [inhibitor, single point]"
CCC1(C)Cc2ccccc2C(Nc2c(C)n(C)n(-c3ccccc3)c2=O)=N1 (stereo not drawn),inactive: 7.51%,
Cc1ccc(C2/C(=C(/O)c3ccccc3)C(=O)C(=O)N2CCN2CCOCC2)o1 (stereo not drawn),,"inconclusive [inhibitor, single point]"
CC(=O)C1=C(O)C(=O)N(CC#N)C1c1cccs1 (stereo not drawn),,"inconclusive [inhibitor, single point]"
Cc1c(Br)c([N+](=O)[O-])nn1CCCC(=O)Nc1sc2c(c1C(N)=O)CCC(C)C2 (stereo not drawn),,active: 25.1 µM
Cc1c(C(=O)NCc2ccccc2)oc2c1C(=O)CCC2,,"inconclusive [inhibitor, single point]"
Cc1ccc(C)c(CN2CCCN(C(=O)Cn3ncc4c3-c3ccccc3OC4)C2)c1,inactive: 0.488%,
Cc1ccccc1-n1c(CSC(=N)N)nc2ccccc2c1=O,,"inconclusive [inhibitor, single point]"
COc1ccc(OCC(=O)Nc2ccc(S(=O)(=O)N3CCCCCC3)cc2)cc1,,"inconclusive [inhibitor, partial curve]"
COc1cc(-n2c(N)c(C(=O)NCc3ccco3)c3nc4ccccc4nc32)cc(OC)c1OC,,"inconclusive [inhibitor, partial curve]"
CCn1c(N)c(C(=O)N2CCOCC2)sc1=S,inactive: -13.6%,
CC1(C)CC(Nc2ccc(Nc3ccccc3)cc2)CC(C)(C)N1,,"inconclusive [inhibitor, single point]"
c1ccc2c(c1)OC(CCCN1CCCCC1)c1ccccc1S2 (stereo not drawn),inactive: 4.47%,
C/C(=N\NS(=O)(=O)c1cccc([N+](=O)[O-])c1)c1cccnc1,,"inconclusive [inhibitor, single point]"
CCc1ccc2[nH]c(=O)c(CN(Cc3ccccc3)Cc3nnnn3Cc3ccco3)cc2c1,,active: 12.6 µM
O=C(c1csnn1)N1CCC[C@@]2(CCN(c3ncccn3)C2)C1,inactive: 4%,
COC(=O)CN1C(=O)C2(C(C#N)=C(N)Oc3n[nH]c(-c4cccs4)c32)c2ccccc21 (stereo not drawn),,active: 2.24 µM
CCCN=C(N)NCCC[C@H](N)C(=O)O,inactive: -4.26%,

Compound,"activity, negative = inhibition",Potency
CCn1c(N2CCN(C(=S)NCCc3ccccc3)CC2)nc2ccccc21,,"inconclusive [inhibitor, single point]"
CCOC(=O)C1=C(CN2CCc3ccccc32)NC(=O)NC1c1cccc([N+](=O)[O-])c1 (stereo not drawn),inactive: -7.14%,
Fc1ccc(COc2ccccc2-c2ccnc3ncnn23)cc1,,"inconclusive [inhibitor, partial curve]"
CCNC(=O)COC(=O)C1CCC(=O)N(c2ccc(OC)cc2)C1c1ccc(OC)cc1 (stereo not drawn),,active: 8.91 µM
O=C(c1cc2c(ccc3ccccc32)oc1=O)N1CCN(CCO)CC1,,"inconclusive [inhibitor, partial curve]"
C=CCn1c(SCC(=O)Nc2ccccc2)nnc1-c1cccc(S(=O)(=O)N2CCOCC2)c1,,"inconclusive [inhibitor, single point]"
Cc1cccc(Oc2nc(CN3CCOCC3)nc3sc4c(c23)CCCC4)c1,,"inconclusive [inhibitor, partial curve]"
CSc1cccc(NC(=O)CCc2ccccc2)c1,inactive: 2.52%,
c1ccc(-c2nc(CSc3nnnn3-c3ccccc3)cs2)cc1,,active: 14.1 µM
CN(C)S(=O)(=O)c1cccc(C(=O)Nc2ccc(S(=O)(=O)N3CCCC3)cc2)c1,,"inconclusive [inhibitor, partial curve]"
Cc1ccc(S(=O)(=O)OCCc2ccccc2)cc1,inactive: -2.64%,
COc1ccc(-n2c(SCC(N)=O)nnc2-c2cccnc2)cc1,,"inconclusive [inhibitor, single point]"
COc1cc(CN2CCN(c3ccccc3F)CC2)c([N+](=O)[O-])cc1OC,,active: 28.2 µM
COc1ccc(OC)c(NC(=O)CSc2ncnc3c2cnn3-c2ccccc2Cl)c1,,active: 15.8 µM
CCc1cc(CNC(=O)CCc2nnc(CCCc3ccccc3)o2)on1,inactive: -5.53%,
Cc1sc(NC(=O)C2C3CCC(O3)C2C(=O)O)c(C(=O)OC(C)C)c1-c1ccc(Cl)cc1 (stereo not drawn),,"inconclusive [inhibitor, single point]"
COc1cc(-c2nc3cnccn3c2Nc2ccc(C)cc2)ccc1O,,"inconclusive [inhibitor, single point]"
O=S(=O)(/C=C/c1ccccc1)N1CCN(c2cccc(Cl)c2)CC1,inactive: -6.82%,
O=C(CSc1nnc(Cc2ccccc2)n1-c1cccc(Cl)c1)NNC(=O)Cc1ccccc1,inactive: 3.99%,
COC(=O)C1=C(O)/C(=C\c2ccc(CNC(=O)C(=O)Nc3ccc(C)cc3)o2)N=C1C,,"inconclusive [inhibitor, single point]"
Cc1ccc(-n2c(C)cc(/C=c3/sc4nc5ccccc5n4c3=O)c2C)cc1,,"inconclusive [inhibitor, partial curve]"
O=C(CCC1CCCN(C(=O)c2ccc3cc[nH]c3c2)C1)N1CCN(c2ccccn2)CC1 (stereo not drawn),inactive: -11.8%,
CCC(CC)C(=O)Nc1cc(=O)n(C)c(=O)n1C,,"inconclusive [inhibitor, single point]"
CCCNC(=O)OC[C@H]1O[C@@H](CCO/N=C2/[C@H]3O[C@@H]3[C@@H](O)[C@H]3[C@H]2CCn2c(=O)n(-c4ccccc4)c(=O)n23)C=C[C@@H]1Oc1ccc(OC)cc1,inactive: -14.5% [at 13.5 µM],
